# Reference: PubChem BioAssay AID686979 (National Center for Advancing Translational Sciences (NCATS), 2013)
# Among all 420,000 compounds or so, about 50,000 (12%) were called active. The shares of active, inactive and inconclusive entries below differ from those in the screen. Calls come from the whole dose curve; as a rule, active = well fitted inhibition curve with a large enough effect; inconclusive = small, poorly fitted or top-dose-only effect; inactive = flat fitted curve, though single readings scatter. Potencies of inconclusive entries are left out as doubtful fits.
# Assay: qHTS for Inhibitors of human tyrosyl-DNA phosphodiesterase 1 (TDP1): qHTS in cells in presence of CPT; note: nearly all actives have a fitted effect of over 55% in size
# Settings: chicken DT40 Tdp1-/-;hTDP1 cells + 20 nM CPT, ATP luminescence, 48 h; activity change, negative = growth inhibition: at 46.2 µM (top of the series) unless noted
# Summary of the method: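 Chicken DT40 Tdp1-/- cells complemented with human TDP1, 400 cells/well, exposed to compounds plus 20 nM camptothecin for at least 48 h at 37 C; viability read as ATP content by CellTiter-Glo luminescence.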
# % is set by controls: 0 for no effect and ±100 for the full control effect; potency is the fitted concentration of half-maximal effect; tags give direction and shape of the fitted curve.
SMILES,Potency,"activity change, negative = growth inhibition"
CC(Oc1ccc(Cl)cc1Cl)C(=O)Nc1ncccn1 (centres undefined),inactive,–
O=C(Cc1ccc(Br)cc1)Nc1ncc([N+](=O)[O-])s1,"inconclusive [inhibitor, single point]",–
CN(C(=O)CN1C(=O)/C(=C/c2ccccc2F)SC1=S)C1CCS(=O)(=O)C1 (centres undefined),active: 18.4 µM,–
COC(=O)Cn1c(=O)c2c(nc3n2CCN3c2ccc(F)cc2)n(C)c1=O,inactive,–
COc1cccc(CN2CCC2(C)C(=O)Nc2cccc(NS(C)(=O)=O)c2)c1OC (centres undefined),active: 18.4 µM,–
CCOC(=O)c1c(C)nc2c(c1-c1ccccc1)C(=O)c1ccccc1-2,"inconclusive [inhibitor, single point]",–
O=c1[nH]c(-c2ccccc2F)nc2c1sc(=S)n2Cc1ccccc1,"inconclusive [inhibitor, partial curve]",–
Cc1ccccc1-n1ncc2c1CC(C)(C)CC2NC(=O)CCn1cncn1 (centres undefined),–,inconclusive: 10.1% [inhibitor]
COc1ccc(S(=O)(=O)N(C)C[C@H]2OCCCC[C@@H](C)Oc3ccc(NC(=O)CCC(F)(F)F)cc3C(=O)N([C@H](C)CO)C[C@@H]2C)cc1,inactive,–
CCc1ccc(N2CC(C(=O)N(CC)CC(=O)Nc3c(F)cccc3F)CC2=O)cc1 (centres undefined),"inconclusive [inhibitor, partial curve]",–
CC1(C)CC(=O)C2=C(C1)NC(Nc1nc3ccccc3o1)=NC21CCCC1,"inconclusive [inhibitor, single point]",–
CCOc1ccccc1C(=O)Nc1nc2c(s1)CC(C)CC2 (centres undefined),"inconclusive [inhibitor, single point]",–
Cc1ccccc1OCC(=O)OCC(=O)NCCNC(=O)COC(=O)COc1ccccc1C,inactive,–
COc1cc2c(cc1NC(=O)c1cccc(S(=O)(=O)N(C)C)c1)oc1ccccc12,active: 10.3 µM,–
COc1ccc(CNC(=O)c2ccc(=O)oc2)cc1OC,inactive,–
Cc1ccc(C(C[N+](=O)[O-])c2c(N)n(C)c(=O)n(C)c2=O)cc1 (centres undefined),active: 3.66 µM,–
c1csc(-c2cn3c(n2)SCC3)c1,inactive,–
CCOC(=O)c1cccc(NC(=O)/C(=C\c2ccccc2)NC(=O)c2ccccc2Cl)c1,"inconclusive [inhibitor, single point]",–
COc1ccccc1-c1nc(SCC(=O)Nc2cc(C)on2)c2c(=O)n(C)c(=O)n(C)c2n1,inactive,–
CCCN1CNC(=S)N(Cc2ccccc2)C1,inactive,–
Cc1ccccc1NC(=O)Cn1c(=O)n(CC2CCC(C(=O)NCCc3ccccc3)CC2)c(=O)c2ccccc21 (centres undefined),"inconclusive [inhibitor, single point]",–
COc1ccc(C(=O)NCCCN2CCOCC2)cc1OC,inactive,–
Cc1cccc(-n2c(CCn3nc(C)c([N+](=O)[O-])c3C)n[nH]c2=S)c1,inactive,–
CCOC(=O)C1CCCN(Cc2nc(N)nc(Nc3ccc(Cl)cc3)n2)C1 (centres undefined),"inconclusive [inhibitor, single point]",–
CSc1ccc(/C=C2\C=Cc3ccccc32)cc1,inactive,–

SMILES,Potency,"activity change, negative = growth inhibition"
Nc1ccc(S(=O)(=O)Nc2nccc(/C=C/c3ccc(Cl)cc3Cl)n2)cc1,inactive,–
N#Cc1ccccc1OCC(=O)Nc1ccc(N2CCOCC2)cc1N1CCOCC1,"inconclusive [inhibitor, single point]",–
O=Cc1cccc(C=O)c1,inactive,–
Cc1cc(NC(=O)C2CC(=O)N(c3cccc(Cl)c3)C2)no1 (centres undefined),inactive,–
CCCCC(CC)CNC(=O)CN1C(=O)NC2(CCc3ccccc32)C1=O (centres undefined),"inconclusive [inhibitor, partial curve]",–
COCc1cccc(-c2csc(C(O)c3ccc(F)cc3)n2)c1 (centres undefined),active: 16.4 µM,–
CCN(CC(=O)NC1CCCC1)S(=O)(=O)c1ccc(Br)cc1,"inconclusive [inhibitor, single point]",–
COc1ccc(OC)c(S(=O)(=O)CC(=O)c2cc3ccc(OC)cc3oc2=O)c1,inactive,–
Cc1ccc(C(=O)Nc2cc3c(cc2N2CCCC2)n(C)c(=O)c(=O)n3C)cc1,"inconclusive [inhibitor, single point]",–
COc1cc(NC(=O)COCc2cc(-c3ccc(F)cc3)on2)cc(OC)c1OC,active: 13 µM,–
COc1ccc(NC(=O)CSc2ncnc3c2nnn3-c2ccc(F)cc2)c(OC)c1,–,inconclusive: -36.3% [inhibitor]
Cc1cccc(C(=O)Nc2cc(=O)n(C)c(=O)n2C)c1,inactive,–
O=C(Nc1ccccc1N1CCOCC1)C1CCCCN1S(=O)(=O)c1ccccc1 (centres undefined),"inconclusive [inhibitor, partial curve, poor fit]",–
CCOC(=O)c1cccc(NC(=O)CCc2nnc3ccc(N4CCCCC4)nn23)c1,"inconclusive [inhibitor, single point]",–
CCn1ccnc1CN(C)Cc1cn[nH]c1-c1ccc(F)cc1F,"inconclusive [inhibitor, single point]",–
CC(C)(C)c1ccc(C(=O)Nc2ccc(F)cc2)s1,inactive,–
Cc1ccc(C)c(NC(=S)NNC(=O)c2ccc(Br)o2)c1,"inconclusive [inhibitor, single point]",–
Cc1noc(C)c1COc1ccc(C(=O)Nc2ccccc2)cc1,inactive,–
COc1cc(-c2nnc(SCc3c(F)cccc3Cl)o2)cc(OC)c1OC,"inconclusive [inhibitor, single point]",–
C=CCn1c(Cc2ccccc2)nc2c(cnn2-c2ccccc2)c1=O,"inconclusive [inhibitor, single point]",–
Cc1ccc([N+](=O)[O-])cc1S(=O)(=O)Nc1ccc(C(=O)NCc2ccccn2)cc1,inactive,–
Cc1cccc(NC(=O)c2cnc3ccccn3c2=O)c1,inactive,–
CCN(CC)S(=O)(=O)c1ccc2oc(SCc3ccc(F)cc3)nc2c1,"inconclusive [inhibitor, single point]",–
COc1ccc(NC(=O)C(=O)NCC(c2ccco2)N2CCc3ccccc3C2)cc1OC (centres undefined),"inconclusive [inhibitor, single point]",–
